In PubChem BioAssay AID1745853 (National Center for Advancing Translational Sciences (NCATS), 2022) one finds activity change, negative = inhibition data, which are given here for 38 molecules.

Each structure is given as a SMILES string. This is one part of the list. These are further read-outs of the screen, such as a control signal, another cell line or another target. No call is given for them.

Experiment in all cases: Primary Screen for Target Class Profiling of Small Molecule Inhibitors of Methyltransferases
Assay [1] addresses Glycine N-methyltransferase (Homo sapiens) (UniProt Q14749). The conditions noted are these: purified enzyme, MTase-Glo SAH luminescence; measured here: GNMT inhibition; at 40 µM; stronger effect = lower value. A digest of the protocol:
(§1)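 Each enzyme was reacted with SAM and its substrate, with compounds tested once at 40 uM; SAH formed was read by MTase-Glo luminescence.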

Assay [2] addresses Guanidinoacetate N-methyltransferase (Homo sapiens) (UniProt Q14353). The conditions noted are these: purified enzyme, MTase-Glo SAH luminescence; measured here: GAMT inhibition; at 40 µM; stronger effect = lower value. A digest of the protocol: as §1
Assay [3] concerns the target Histamine N-methyltransferase (Homo sapiens) (UniProt P50135). Conditions: purified enzyme, MTase-Glo SAH luminescence; measured here: HNMT inhibition; at 40 µM; stronger effect = lower value. A digest of the protocol: as §1
Assay [4] has as its target Nicotinamide N-methyltransferase (Homo sapiens) (UniProt P40261). Conditions: purified enzyme, MTase-Glo SAH luminescence; measured here: NNMT inhibition; at 40 µM; stronger effect = lower value. A digest of the protocol: as §1
In assay [5] the target is Phenylethanolamine N-methyltransferase (Homo sapiens) (UniProt P11086). Conditions: purified enzyme, MTase-Glo SAH luminescence; measured here: PNMT inhibition; at 40 µM; stronger effect = lower value. A digest of the protocol:
as §1
% is scaled to controls: 0 for no effect and ±100 for the full control effect.

Take `O=C(Nc1ccc(=O)n2c1[C@@H]1C[C@@H](CN(C(=O)Nc3ccc(F)cc3)C1)C2)c1ccc2c(c1)OCO2`: the activity change, negative = inhibition in assay [1] is -1.47%; in assay [2], -0.951%; in assay [3], 0.523%; in assay [4], -0.135%; in assay [5], 0.905%.

Take `N=C(N)c1ccc(OCCCCCOc2ccc(C(=N)N)cc2)cc1` (tested in a mixture with another compound): the activity change, negative = inhibition in assay [1] is -9.66%; in assay [2], 5.57%; in assay [3], -92.3%; in assay [4], -11.2%; in assay [5], -2.38%.

Turning to `CCn1c(=O)n(CC)c2cc(S(=O)(=O)N3CCN(c4ccccc4OC)CC3)ccc21`, the activity change, negative = inhibition in assay [1] was 11.9%; in assay [2] it was 2.6%; in assay [3], 11.4%; in assay [4], 5.4%; in assay [5], 9.41%.

Turning to `CCn1ccc(C(=O)N2CCC(C3CCN(C(C)=O)CC3)C2)n1` (configuration not stated), the activity change, negative = inhibition is -2.89% in assay [1]; -3.72% in assay [2]; 0.874% in assay [3]; 0.172% in assay [4]; 1.03% in assay [5].

Consider `O=C1NCCOCCCN(S(=O)(=O)c2ccccc2)[C@H]2CCCC[C@@H]12`, for which the activity change, negative = inhibition in assay [1] was -1.26%; in assay [2], -2.22%; in assay [3], -0.533%; in assay [4], -3.46%; in assay [5], 1.69%.

Take `O=C(c1sccc1Cl)N1CCn2nc(C(O)c3ccccc3)cc2C1` (configuration not stated): the activity change, negative = inhibition in assay [1] is -4.97%; in assay [2], -2.98%; in assay [3], -1.61%; in assay [4] it was -7.35%; in assay [5], -20.3%.

For `Cc1cnc(C)c(-c2cc(O)c3c(c2)CNCCO3)n1`, the activity change, negative = inhibition is -4.78% in assay [1]; -1.05% in assay [2]; 1.55% in assay [3]; -1.55% in assay [4]; -11.6% in assay [5].

As to `CCCN1C(=O)c2c(C(=O)NCc3ccc(OCC)cc3)ncn2CC1(C)C(=O)NCc1ccc(C)cc1` (configuration not stated), the activity change, negative = inhibition in assay [1] amounted to 1.6%; in assay [2] it was 0%; in assay [3], 6.37%; in assay [4], 5.81%; in assay [5], 7.49%.

As to `O=C(NC1CC1)c1ccc2c(=O)nc3c(-c4ccccc4)n[nH]n3c2c1`, the activity change, negative = inhibition was -1.23% in assay [1]; 6.26% in assay [2]; -1.55% in assay [3]; 3.86% in assay [4]; 0.46% in assay [5].

Turning to `Cc1cccc(NC(=O)CN2CCC(c3ccccn3)CC2)c1`, the activity change, negative = inhibition in assay [1] is 2.79%; in assay [2], 0.708%; in assay [3] it was 5.57%; in assay [4], -14.3%; in assay [5] it was -3.92%.

With `CC(C)CCn1c(=O)c2ccccc2n2c(SCc3cccc(F)c3)nnc12`, the activity change, negative = inhibition is 0.14% in assay [1]; 2.96% in assay [2]; 10.2% in assay [3]; -5.87% in assay [4]; 7.99% in assay [5].

In the case of `CC(C)NC(=O)C1CCCN1c1nc2ncccc2o1` (configuration not stated), the activity change, negative = inhibition in assay [1] is -3.77%; in assay [2], -6.46%; in assay [3] it was -1.3%; in assay [4] it was -5.89%; in assay [5], -6.5%.

Take `Cc1ccc(N2CCN(C(=O)Cn3c(=O)oc4cc(S(=O)(=O)N5CCCC5)ccc43)CC2C)cc1` (configuration not stated): the activity change, negative = inhibition in assay [1] was 0.112%; in assay [2] it was 3.67%; in assay [3], -1.29%; in assay [4] it was -3.51%; in assay [5], -6.16%.

In the case of `Cc1ccc2c(c1)c(-n1cccc1)c1n2CC(C)(C(=O)NCCC(C)C)N(Cc2cccnc2)C1=O` (configuration not stated), the activity change, negative = inhibition was -12.2% in assay [1]; 3.32% in assay [2]; -4.08% in assay [3]; -34.3% in assay [4]; -2.25% in assay [5].

For `CCOC(=O)c1cc2n(n1)CC(C)(C(=O)NC1CCCCC1)N(Cc1ccc(OC)cc1)C2=O` (configuration not stated), the activity change, negative = inhibition is -3.33% in assay [1]; -0.87% in assay [2]; -8.84% in assay [3]; -0.923% in assay [4]; -3.16% in assay [5].

For the molecule `CCN1CCN(c2ccc(Nc3cc(N(C)C(=O)Nc4c(Cl)c(OC)cc(OC)c4Cl)ncn3)cc2)CC1`, the activity change, negative = inhibition is -7.3% in assay [1]; -3.85% in assay [2]; -26.7% in assay [3]; -36.3% in assay [4]; -1.9% in assay [5].

With `O=C1CN(Cc2ccc(-c3cc(F)cc(F)c3)cc2)CCN1c1cc(Cl)ncn1`, the activity change, negative = inhibition in assay [1] is -3.12%; in assay [2], 2.1%; in assay [3], -1.47%; in assay [4], -4.1%; in assay [5], -3.87%.

For the molecule `CCCCOc1ccc(-c2cncc(C(=O)NCc3cccnc3N3CCOCC3)c2)cc1Cl`, the activity change, negative = inhibition in assay [1] is -0.209%; in assay [2], 17.6%; in assay [3], 4.69%; in assay [4], -4.55%; in assay [5] it was -0.962%.

`CC(C)CC(=O)O[C@@H]1OC=C(CO[C@@H]2O[C@H](CO[C@@H]3O[C@H](CO)[C@@H](O)[C@H](O)[C@H]3O)[C@@H](O)[C@H](O)[C@H]2O)[C@H]2C[C@H](O)[C@@H](CO)[C@@H]12`: the activity change, negative = inhibition in assay [1] was 0%; in assay [2], 4.22%; in assay [3], 10%; in assay [4], -6.88%; in assay [5], 2.22%.

For `CCCCN1C(=O)c2cc(C(=O)Nc3cccc(C(=O)OCC)c3)nn2CC1(C)C(=O)NC1CCCC1` (configuration not stated), the activity change, negative = inhibition is -3.54% in assay [1]; 0% in assay [2]; -9.94% in assay [3]; -9.02% in assay [4]; -0.856% in assay [5].

In the case of `COc1ccccc1CC(C(=O)O)N(C)C(=O)c1ccccc1` (configuration not stated), the activity change, negative = inhibition was 0.46% in assay [1]; -4.57% in assay [2]; 5.12% in assay [3]; -12.2% in assay [4]; -8.67% in assay [5].

For `C=CCn1c(=O)c2ccc(C(=O)NC(C)C)cc2n2c(=O)n(CC(=O)NC3CCCCC3)nc12`, the activity change, negative = inhibition in assay [1] was determined as 8.09%; in assay [2], 2.55%; in assay [3], 14.3%; in assay [4], 7.49%; in assay [5] it was 9.57%.

`COc1ccccc1OCCNC(=O)c1ccc2c(c1)N(C)C1CCCCN1C2=O` (configuration not stated): the activity change, negative = inhibition in assay [1] is -17.1%; in assay [2], -10.3%; in assay [3], -10.9%; in assay [4], -20.2%; in assay [5], -9.43%.

With `COc1ccc(-c2cc3n(n2)CC(C)(C(=O)NCc2ccccc2)N(Cc2ccc(OC)cc2OC)C3=O)cc1` (configuration not stated), the activity change, negative = inhibition was 6.76% in assay [1]; 0% in assay [2]; 9.15% in assay [3]; 2.95% in assay [4]; 3.19% in assay [5].

Regarding `COCCN1C(=O)c2cc3sccc3n2CC1(C)C(=O)NC1CCCCC1` (configuration not stated), the activity change, negative = inhibition in assay [1] amounted to 3.99%; in assay [2], 4.52%; in assay [3] it was 8.55%; in assay [4], 4.02%; in assay [5] it was 3.32%.

Regarding `COc1ccccc1CC(=O)N1CCC2(CC1)N=C(c1ccc(C)cc1)NO2`, the activity change, negative = inhibition in assay [1] is -0.499%; in assay [2], 2.45%; in assay [3] it was -0.288%; in assay [4] it was 1.33%; in assay [5], 3.95%.

For the molecule `C=C(C)C(=O)O[C@H]1C[C@@](C)(O)C2(O)CCC(C)(/C=C3/OC(=O)C(COC)=C31)O2` (some centres not stated), the activity change, negative = inhibition in assay [1] is 0%; in assay [2] it was 5.96%; in assay [3], 9.49%; in assay [4], -6.42%; in assay [5], 3.51%.

As for `CCOc1ccccc1NC(=O)N1Cc2c(sc3c2CCCC3)-n2cccc2C1c1cc(F)cc(F)c1` (configuration not stated), the activity change, negative = inhibition in assay [1] was -4.14%; in assay [2] it was 0.688%; in assay [3], 0.702%; in assay [4], -8.6%; in assay [5] it was 1.29%.

Turning to `Cc1ccc(NS(=O)(=O)c2ccc3[nH]c4c(c3c2)CCCC4)c(Cl)c1`, the activity change, negative = inhibition in assay [1] is 1.22%; in assay [2] it was 5.87%; in assay [3], 3.37%; in assay [4], -3.27%; in assay [5], 1.67%.

Turning to `CC[C@@]1(O)CCN(C(=O)c2ccc(CSc3ccccc3)o2)C[C@H]1O`, the activity change, negative = inhibition was -4.72% in assay [1]; -5.51% in assay [2]; -0.854% in assay [3]; -11% in assay [4]; -4.96% in assay [5].

As to `Oc1cc(O)cc(/C=C/c2ccc(O)c(O)c2)c1`, the activity change, negative = inhibition in assay [1] was -55.6%; in assay [2], -4.23%; in assay [3], -13.5%; in assay [4], -14.6%; in assay [5] it was -8.59%.

As for `COc1ccc(OC)c(CNC(=O)Cn2ccc3cc(S(=O)(=O)N4CCCC4)ccc32)c1`, the activity change, negative = inhibition in assay [1] was 1.67%; in assay [2], 2.77%; in assay [3], -6.99%; in assay [4] it was -1.17%; in assay [5], 2.69%.

With `NC(=O)c1cnc(N[C@@H]2CCCC[C@H]2N)nc1Nc1cccc(-n2nccn2)c1`, the activity change, negative = inhibition in assay [1] was -9.04%; in assay [3], -14.6%.

Regarding `O=C(NC1CCCCC1)O[C@@H]1CO[C@H]2[C@@H]1OC[C@@H]2n1nnnc1-c1ccc2c(c1)OCCO2`, the activity change, negative = inhibition in assay [1] is -3.69%; in assay [2] it was -3.43%; in assay [3], -0.059%; in assay [4] it was -9.07%; in assay [5], -4.25%.

Take `COc1ccccc1CCNC(=O)Cn1ccc2cc(S(=O)(=O)N3CCC(C)CC3)ccc21`: the activity change, negative = inhibition in assay [1] is -0.15%; in assay [2], 4.84%; in assay [3], -3.84%; in assay [4], -1.56%; in assay [5] it was 0.291%.

Regarding `CCCn1c(=O)c2ccc(C(=O)NC(C)C)cc2n2c(SCC(=O)Nc3cc(F)ccc3F)nnc12`, the activity change, negative = inhibition was -2.62% in assay [1]; 1.84% in assay [2]; 4.16% in assay [3]; -0.61% in assay [4]; 2.09% in assay [5].

For the molecule `Nc1nnc(-c2cccc(Cl)c2Cl)c(N)n1`, the activity change, negative = inhibition was 5.72% in assay [1]; 10% in assay [2]; 5.11% in assay [3]; -2.71% in assay [4]; 7.2% in assay [5].

On to `Cc1cccc(C(=O)N2CCCCCCN(C)C(=O)[C@@H]3CCC[C@@H]32)c1`, for which the activity change, negative = inhibition in assay [1] was -3.26%; in assay [2] it was -14%; in assay [3], -3.26%; in assay [4] it was -17.1%; in assay [5] it was -23.5%.
